Reference: publication PMC10668032
This is one part of the list. At the low end of the ranking, values are background and their order means little.

The sequences below were run against SIX1-Q177R homeodomain (UniProt Q15475) (assay: universal protein binding microarray). Details: Universal all-10-mer PBM (8x60K, AMADID 030236), 300 nM GST-tagged protein, Alexa Fluor 488 anti-GST; buffer, salt, pH and temperature not stated; high values mean tight binding; most listed sequences are background and not binding sites; double strand, one strand shown.
ATCGGATG showed a binding signal of -0.0387 E-score. With TCGGAACA the binding signal was 0.121 E-score. AATAAACT showed a binding signal of -0.164 E-score. In the case of AGCGTGTG, the binding signal is reported as 0.281 E-score. For ACGCGCCC, the binding signal was 0.0735 E-score. ATGCCTCG was tested, and the binding signal was -0.226 E-score. In the case of ACAATTCG, the binding signal is reported as -0.0744 E-score. ACAATGAA gave a binding signal of -0.191 E-score. Sequence CTTTCCGC has a binding signal of -0.138 E-score. Work on GTAACGGA yielded a binding signal of -0.0519 E-score. Work on GGGTCCAA yielded a binding signal of 0.218 E-score. CAATCAGA showed a binding signal of -0.114 E-score. AGGACGGC showed a binding signal of -0.21 E-score. ACGTAATG showed a binding signal of -0.0582 E-score. Work on AAACGGAG yielded a binding signal of -0.206 E-score. CCGGGATA showed a binding signal of 0.0159 E-score. Sequence GCGACAGC has a binding signal of -0.267 E-score. CAGATAGA was tested, and the binding signal was -0.114 E-score. In the case of AAAAAGCT, the binding signal is reported as -0.247 E-score. With CTTGTTTC the binding signal was 0.0226 E-score. Work on AAGTGGCG yielded a binding signal of -0.125 E-score. In the case of AGAGGTCC, the binding signal is reported as -0.106 E-score. ACCGCGAA was tested, and the binding signal was 0.161 E-score. ATTCATAC gave a binding signal of -0.00919 E-score. In the case of ATTGTTGC, the binding signal is reported as -0.0309 E-score. ATCGTTAC showed a binding signal of -0.0388 E-score. Sequence AACCTTGG has a binding signal of 0.0102 E-score. For CTCCAGCA, the binding signal was 0.0219 E-score. Work on CATCAATC yielded a binding signal of -0.123 E-score. For ATATGCCC, the binding signal was -0.0104 E-score. In the case of GGCGTTGA, the binding signal is reported as -0.0156 E-score. In the case of CGGGAACC, the binding signal is reported as -0.055 E-score. AGCAAGAC was tested, and the binding signal was -0.0797 E-score. In the case of GCGCAAAC, the binding signal is reported as -0.142 E-score. Sequence GGGGAGCA has a binding signal of -0.121 E-score. Sequence ACTGGCAG has a binding signal of -0.0896 E-score. With GCAGCGTA the binding signal was -0.167 E-score. ATACTATA showed a binding signal of 0.0849 E-score. Sequence AAAAGGAG has a binding signal of -0.186 E-score. GGTCTGAA showed a binding signal of -0.146 E-score. AGCCCGAG showed a binding signal of -0.108 E-score. AGTACTAC was tested, and the binding signal was -0.0546 E-score. CAGCAATA gave a binding signal of -0.151 E-score. With ACGGAGGA the binding signal was 0.102 E-score. AAAAGGGT was tested, and the binding signal was -0.0479 E-score. With AAGTTGCG the binding signal was -0.0682 E-score. With GGACCAAA the binding signal was -0.142 E-score. AGCTGTCA showed a binding signal of -0.23 E-score. Sequence ACATAACT has a binding signal of 0.11 E-score. GGCTCGCA showed a binding signal of -0.0523 E-score. GCTACACC gave a binding signal of 0.473 E-score. ACCAGAAT showed a binding signal of 0.161 E-score. For CGCGAGTA, the binding signal was 0.127 E-score. For ATGATCAC, the binding signal was -0.0125 E-score. ACACTGTC showed a binding signal of 0.336 E-score. For CGTCGAGC, the binding signal was -0.0139 E-score. With AGTAGCAA the binding signal was -0.137 E-score. Work on TCTAAACA yielded a binding signal of -0.00135 E-score. ACAGATGA was tested, and the binding signal was -0.167 E-score. In the case of CGTATCAA, the binding signal is reported as -0.0127 E-score. With GTCTCAAA the binding signal was -0.0229 E-score. In the case of CGTTTCTC, the binding signal is reported as 0.0938 E-score. In the case of AATGGGAT, the binding signal is reported as 0.053 E-score. With CAGAGGAG the binding signal was -0.107 E-score. AGCATGGG gave a binding signal of 0.0289 E-score. Sequence CAAATATA has a binding signal of -0.0486 E-score. ATCCTTCG showed a binding signal of -0.0216 E-score. Sequence GGTATGGA has a binding signal of -0.0445 E-score. For AAACTAAG, the binding signal was -0.0712 E-score. Work on GTGGCATA yielded a binding signal of 0.107 E-score. Sequence CAGGAGAG has a binding signal of -0.0614 E-score. Work on TCGCCCCA yielded a binding signal of -0.128 E-score. Sequence ACCTACGT has a binding signal of -0.0587 E-score. Sequence AAGCCCAC has a binding signal of -0.101 E-score. Work on CGCTAGAC yielded a binding signal of -0.00679 E-score. AACATATT gave a binding signal of -0.263 E-score. For CCATCCAC, the binding signal was 0.0874 E-score. AAGGCTAG was tested, and the binding signal was -0.119 E-score. For GGATTTAC, the binding signal was 0.0105 E-score. With ACCACCAC the binding signal was 0.116 E-score. CAATCCCC showed a binding signal of -0.0225 E-score. TGCACCAA was tested, and the binding signal was 0.211 E-score. Work on CCATGCAC yielded a binding signal of 0.123 E-score. With CAAGTATA the binding signal was -0.2 E-score. For CTGTGTAC, the binding signal was 0.229 E-score. With ATGCTTCG the binding signal was -0.165 E-score. ATGACTAC showed a binding signal of -0.0391 E-score. In the case of CCAGCCGC, the binding signal is reported as -0.0454 E-score. Sequence GCCGTAAC has a binding signal of -0.115 E-score. For AACAGTTA, the binding signal was -0.114 E-score. AGCAGCAG was tested, and the binding signal was -0.072 E-score. ATCTTCAC was tested, and the binding signal was 0.0244 E-score. AGGCTACC showed a binding signal of 0.187 E-score. ACAGTAAA gave a binding signal of -0.0328 E-score. Sequence ACTAGTAA has a binding signal of -0.0852 E-score. Sequence CACTTTCA has a binding signal of 0.117 E-score. With ACTTCAAA the binding signal was -0.2 E-score. Work on AGCACCCT yielded a binding signal of 0.172 E-score. AACGAGGT showed a binding signal of 0.0368 E-score. With TAAAGAAA the binding signal was -0.122 E-score. Sequence GCGTGAGC has a binding signal of -0.061 E-score. With CTCATGTA the binding signal was -0.0107 E-score. Sequence AGATTTTA has a binding signal of -0.0747 E-score. ATCATCCG showed a binding signal of 0.0213 E-score. For CGCCGAAC, the binding signal was -0.0241 E-score. CGCGCGCG was tested, and the binding signal was 0.00566 E-score. CGAAACTA gave a binding signal of -0.111 E-score. In the case of CAATTCCC, the binding signal is reported as -0.1 E-score. Sequence GAACACGA has a binding signal of 0.339 E-score. Sequence GGAGGCAC has a binding signal of -0.0253 E-score.
